# Some of the results follow.
# B1: HML-Native (Hypnea musciformis), P84871 (protein)
# chain: QKFCTLDIAPVCCQIVIGGGMYTAGNACMCEGFVSGVGRCENPKECPCTREAQIPSCCSSRWGLVSVTGKCACDCLGGTVAFPEPCPSPY
# Assays:
# Experiment in all cases: glycan array binding signal (z-score within array); higher = stronger binding
# Conditions in all cases: glycan notation: IUPAC condensed, linker removed
# [1] = target: Gal3S(b1-3)[Fuc(a1-4)]GlcNAc
# In short: (§1)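 Glycan array data were curated from 3228 arrays in the Consortium for Functional Glycomics database and kept only where the protein sequence was available. Glycan names were converted to IUPAC-condensed notation, and columns mapping to the same glycan were averaged. The binding signal is a within-array Z-score, averaged across arrays of the same protein sequence at different concentrations or buffers and across linkers. Negative Z-scores can be read as non-binding.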
# Gal3S(b1-4)Glc = target: Gal3S(b1-4)Glc
# In short: as §1
# Gal3S(b1-4)Glc6S = target: Gal3S(b1-4)Glc6S
# In short: as §1
# Gal3S(b1-4)GlcNAc = target: Gal3S(b1-4)GlcNAc
# In short: as §1
# [2] = target: Gal3S(b1-4)[Fuc(a1-3)]Glc6S
# In short: as §1
# [3] = target: Gal3S(b1-4)[Fuc(a1-3)]GlcNAc
# In short: as §1
# [4] = target: Gal3S(b1-4)[Fuc(a1-3)]GlcNAc6S
# In short: as §1
# Gal3S4S(b1-4)GlcNAc = target: Gal3S4S(b1-4)GlcNAc
# In short: as §1
# Gal3S6S(b1-4)GlcNAc = target: Gal3S6S(b1-4)GlcNAc
# In short: as §1
# Gal3S6S(b1-4)GlcNAc6S = target: Gal3S6S(b1-4)GlcNAc6S
# In short: as §1
# Gal4S(b1-4)GlcNAc = target: Gal4S(b1-4)GlcNAc
# In short: as §1
# Gal4S6S(b1-4)GlcNAc = target: Gal4S6S(b1-4)GlcNAc
# In short: as §1
# Gal6P(b1-4)GlcNAc = target: Gal6P(b1-4)GlcNAc
# In short: as §1
# Gal6S(b1-3)GlcNAc = target: Gal6S(b1-3)GlcNAc
# In short: as §1
# Gal6S(b1-3)GlcNAc6S = target: Gal6S(b1-3)GlcNAc6S
# In short: as §1
# Gal6S(b1-4)Glc = target: Gal6S(b1-4)Glc
# In short: as §1
# Gal6S(b1-4)Glc6S = target: Gal6S(b1-4)Glc6S
# In short: as §1
# Gal6S(b1-4)GlcNAc = target: Gal6S(b1-4)GlcNAc
# In short: as §1
# Gal6S(b1-4)GlcNAc6S = target: Gal6S(b1-4)GlcNAc6S
# In short: as §1
# GalNAc(a1-3)Gal = target: GalNAc(a1-3)Gal
# In short: as §1
# GalNAc(a1-3)GalNAc = target: GalNAc(a1-3)GalNAc
# In short: as §1
# [5] = target: GalNAc(a1-3)GalNAc(b1-3)Gal(a1-4)Gal(b1-4)Glc
# In short: as §1
# [6] = target: GalNAc(a1-3)GalNAc(b1-3)Gal(a1-4)Gal(b1-4)GlcNAc
# In short: as §1
# GalNAc(b1-3)Gal = target: GalNAc(b1-3)Gal
# In short: as §1
# [7] = target: GalNAc(b1-3)Gal(a1-4)Gal(b1-4)GlcNAc
# In short: as §1
# [8] = target: GalNAc(b1-3)Gal(a1-4)Gal(b1-4)GlcNAc(b1-3)Gal(b1-4)Glc
# In short: as §1
# [9] = target: GalNAc(b1-3)Gal(a1-6)Gal(b1-4)Glc
# In short: as §1
# GalNAc(b1-3)GalNAc = target: GalNAc(b1-3)GalNAc
# In short: as §1
# GalNAc(b1-3)GlcNAc = target: GalNAc(b1-3)GlcNAc
# In short: as §1
# GalNAc(b1-4)Gal(b1-4)Glc = target: GalNAc(b1-4)Gal(b1-4)Glc
# In short: as §1
# GalNAc(b1-4)GlcNAc = target: GalNAc(b1-4)GlcNAc
# In short: as §1
# [10] = target: GalNAc(b1-4)GlcNAc(b1-2)Man
# In short: as §1
# [11] = target: GalNAc(b1-4)GlcNAc(b1-2)Man(a1-3)[GalNAc(b1-4)GlcNAc(b1-2)Man(a1-6)]Man(b1-4)GlcNAc(b1-4)GlcNAc
# In short: as §1
# [12] = target: GalNAc(b1-4)GlcNAc(b1-3)GalNAc(b1-4)GlcNAc
# In short: as §1
# GalNAc(b1-4)GlcNAc6S = target: GalNAc(b1-4)GlcNAc6S
# In short: as §1
# GalNAc(b1-6)GalNAc = target: GalNAc(b1-6)GalNAc
# In short: as §1
# GalNAc3S(b1-4)GlcNAc = target: GalNAc3S(b1-4)GlcNAc
# In short: as §1
# GalNAc3S(b1-4)GlcNAc3S = target: GalNAc3S(b1-4)GlcNAc3S
# In short: as §1
# [13] = target: GalNAc3S(b1-4)[Fuc(a1-3)]GlcNAc
# In short: as §1
# GalNAc4S6S(b1-4)GlcNAc = target: GalNAc4S6S(b1-4)GlcNAc
# In short: as §1
# GalNAc6S(b1-4)GlcNAc = target: GalNAc6S(b1-4)GlcNAc
# In short: as §1
# Glc(a1-4)Glc = target: Glc(a1-4)Glc
# In short: as §1
# [14] = target: Glc(a1-4)Glc(a1-4)Glc(a1-4)Glc
# In short: as §1
# Glc(a1-6)Glc(a1-6)Glc = target: Glc(a1-6)Glc(a1-6)Glc
# In short: as §1
# [15] = target: Glc(a1-6)Glc(a1-6)Glc(a1-6)Glc
# In short: as §1
binder,measurement,setting,value
B1,glycan array binding signal (z-score),[1],-0.257
same,glycan array binding signal (z-score),Gal3S(b1-4)Glc,-0.273
same,glycan array binding signal (z-score),Gal3S(b1-4)Glc6S,-0.255
same,glycan array binding signal (z-score),Gal3S(b1-4)GlcNAc,-0.233
same,glycan array binding signal (z-score),[2],-0.071
same,glycan array binding signal (z-score),[3],-0.149
same,glycan array binding signal (z-score),[4],-0.18
same,glycan array binding signal (z-score),Gal3S4S(b1-4)GlcNAc,-0.298
same,glycan array binding signal (z-score),Gal3S6S(b1-4)GlcNAc,-0.291
same,glycan array binding signal (z-score),Gal3S6S(b1-4)GlcNAc6S,-0.236
same,glycan array binding signal (z-score),Gal4S(b1-4)GlcNAc,-0.172
same,glycan array binding signal (z-score),Gal4S6S(b1-4)GlcNAc,-0.324
same,glycan array binding signal (z-score),Gal6P(b1-4)GlcNAc,-0.305
same,glycan array binding signal (z-score),Gal6S(b1-3)GlcNAc,-0.257
same,glycan array binding signal (z-score),Gal6S(b1-3)GlcNAc6S,-0.323
same,glycan array binding signal (z-score),Gal6S(b1-4)Glc,-0.268
same,glycan array binding signal (z-score),Gal6S(b1-4)Glc6S,-0.246
same,glycan array binding signal (z-score),Gal6S(b1-4)GlcNAc,-0.239
same,glycan array binding signal (z-score),Gal6S(b1-4)GlcNAc6S,-0.216
same,glycan array binding signal (z-score),GalNAc(a1-3)Gal,-0.183
same,glycan array binding signal (z-score),GalNAc(a1-3)GalNAc,-0.182
same,glycan array binding signal (z-score),[5],-0.369
same,glycan array binding signal (z-score),[6],-0.217
same,glycan array binding signal (z-score),GalNAc(b1-3)Gal,-0.265
same,glycan array binding signal (z-score),[7],-0.139
same,glycan array binding signal (z-score),[8],-0.151
same,glycan array binding signal (z-score),[9],-0.345
same,glycan array binding signal (z-score),GalNAc(b1-3)GalNAc,-0.279
same,glycan array binding signal (z-score),GalNAc(b1-3)GlcNAc,-0.26
same,glycan array binding signal (z-score),GalNAc(b1-4)Gal(b1-4)Glc,-0.252
same,glycan array binding signal (z-score),GalNAc(b1-4)GlcNAc,-0.077
same,glycan array binding signal (z-score),[10],-0.213
same,glycan array binding signal (z-score),[11],-0.076
same,glycan array binding signal (z-score),[12],-0.287
same,glycan array binding signal (z-score),GalNAc(b1-4)GlcNAc6S,-0.291
same,glycan array binding signal (z-score),GalNAc(b1-6)GalNAc,-0.284
same,glycan array binding signal (z-score),GalNAc3S(b1-4)GlcNAc,-0.283
same,glycan array binding signal (z-score),GalNAc3S(b1-4)GlcNAc3S,-0.155
same,glycan array binding signal (z-score),[13],-0.195
same,glycan array binding signal (z-score),GalNAc4S6S(b1-4)GlcNAc,-0.333
same,glycan array binding signal (z-score),GalNAc6S(b1-4)GlcNAc,-0.196
same,glycan array binding signal (z-score),Glc(a1-4)Glc,-0.274
same,glycan array binding signal (z-score),[14],-0.157
same,glycan array binding signal (z-score),Glc(a1-6)Glc(a1-6)Glc,-0.272
same,glycan array binding signal (z-score),[15],-0.231

# Reference: the supplement of paper PMC8728848
